# Some of the results follow. At the low end of the ranking the order means little.
# Target: T1, GST-Rok-C97-191 (UniProt O34857)
# T1 sequence: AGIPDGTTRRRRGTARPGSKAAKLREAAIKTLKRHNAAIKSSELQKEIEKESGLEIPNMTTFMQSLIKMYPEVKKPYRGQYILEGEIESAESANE
# Assay: protein binding microarray;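 further: rank score from −0.5 (least bound) to 0.5 (best bound)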
# Conditions: Rok is a gene silencer of Bacillus subtilis; high values mean tight binding; most listed sequences are background and not binding sites; double strand, one strand shown
row,Sequence,binding signal [E-score]
1,AACCGCAG,0.125
2,CATGTTGA,-0.00675
3,CCAATGAG,-0.226
4,CTAAACCC,-0.17
5,ACCTTATC,0.0618
6,CGTCTTCA,-0.0943
7,GTTCCGCA,-0.0716
8,ATCCTGCG,-0.171
9,CCCCAATA,-0.162
10,AGTTAGGC,-0.0909
11,TAAAGCCA,0.0799
12,AAGCCTGA,-0.0501
13,ATATACTC,0.293
14,ACCAATCG,-0.0341
15,AACACGCA,-0.0481
16,CTGTTGAC,-0.136
17,AGTGTACC,0.0716
18,ATCCTCCG,-0.361
19,GGCCGGCA,-0.245
20,TGAAAGCA,0.0344
21,ACCGTGTG,-0.164
22,ATTACTCG,0.198
23,GTAGCGAA,0.0931
24,GAACGCGA,-0.0129
25,GACCCGTC,-0.321

row,Sequence,binding signal [E-score]
1,CGCGCACG,-0.144
2,ACTTCGGG,-0.163
3,ACAAACTG,0.0787
4,CGACTGAG,-0.0342
5,CGGACCCG,-0.0626
6,AAGACGCC,-0.207
7,CGTCGGGA,-0.107
8,CGGGAGGA,-0.219
9,CCATACTA,0.228
10,ATACTGGA,0.0235
11,CTTCTGGC,-0.127
12,GTCGACAA,-0.173
13,CGAAGGGA,-0.0696
14,ACGTCTAT,-0.0106
15,TAACATCA,0.188
16,GGAACCAC,-0.338
17,AGGGGCGG,-0.287
18,GTGGTTTA,0.132
19,CCGGGGAC,-0.225
20,CCCGGCAA,-0.113
21,AAACACCC,0.177
22,GTCACACA,0.0123
23,AATCAACT,0.161
24,AGCAATGG,-0.177
25,CAACCGCC,-0.352

row,Sequence,binding signal [E-score]
1,CGACACTC,0.0223
2,AGCCTGCC,-0.321
3,AATAGCAT,0.116
4,ACACTTAC,0.026
5,ATTGTAAA,0.156
6,TACACTAA,0.14
7,ATTTTTGA,0.109
8,ACCAAGGT,-0.0936
9,GTAATGAC,0.11
10,AGTACAAA,0.342
11,ACAGCGAA,0.0315
12,ACAAGGGT,-0.107
13,ATTAGGAG,0.00201
14,AGAACAGA,0.058
15,ACGGGTTA,-0.0652
16,AAATGCTG,0.0644
17,TAGGTGCA,0.118
18,CGGCAGGA,-0.161
19,CCCGAATA,-0.14
20,AGGCCTCC,-0.274
21,CAGATACA,0.146
22,GGCTATCA,-0.0497
23,AACGGCCG,-0.0184
24,AGTCAGGG,-0.305
25,CGCATCAG,-0.0753

row,Sequence,binding signal [E-score]
1,CTAAGTAG,0.275
2,AGCACTGC,-0.158
3,AACTGCCC,-0.0946
4,TAAGGGCA,0.00129
5,AATCGAGT,0.0307
6,AACGCGGG,-0.179
7,ACTCTCGA,0.0551
8,ACAACTCT,0.128
9,TAACGTCA,0.0342
10,CGATACGA,0.069
11,ACCCGTGC,-0.276
12,CCAGAGAA,0.0844
13,CTCAGGGC,-0.348
14,GCCTTCCA,-0.211
15,AAGCATGC,0.00997
16,CCGCTAGG,-0.135
17,CAGGGTTA,-0.042
18,GTGCTTTA,-0.0835
19,ACTGCAAG,-0.0595
20,AGCCACGC,-0.169
21,CACATTGA,-0.0361
22,ACCAGAAG,0.0767
23,CCCTGTAG,-0.0563
24,CCCGACCA,-0.229
25,TAAACACA,0.213

row,Sequence,binding signal [E-score]
1,CGGCGAAG,0.0966
2,TAGCTGCA,-0.091
3,CATTCGCC,-0.0525
4,CGAGGAGA,-0.179
5,ATGACCTG,-0.0486
6,CAGTCATC,-0.135
7,ATCGGAGA,0.178
8,AACATGCG,0.00488
9,CATCACTA,0.0773
10,GTTTCGGA,-0.0924
11,AGCTACTG,0.233
12,GTAAAACA,0.175
13,CATACGTA,0.173
14,CCCACGAA,-0.287
15,TATTATCA,0.169
16,AGCGAGGA,-0.251
17,AGATGCGG,-0.225
18,GCCGGGGA,-0.195
19,CAAACGCC,-0.166
20,AAGTTGGC,0.135
21,CCCTGACA,-0.218
22,TAAATGAA,0.0281
23,TAGAGACA,0.191
24,CTCGGCAA,-0.188
25,AGTCAAGA,-0.0899

row,Sequence,binding signal [E-score]
1,CGCGTCAG,-0.282
2,ATAGTCTG,0.297
3,AGCGCCCT,-0.304
4,CATCCGTA,0.0643
5,CCAAGACA,-0.143
6,ATCGTGCG,0.00105
7,CGCCCTGA,-0.325
8,CCGACTTC,-0.203
9,GATGTCCA,-0.238
10,CATATCAC,0.0327
11,AATTACCA,0.33
12,GGCCAGCA,-0.0966
13,CTGTACCA,-0.0649
14,AGAAGGCT,-0.232
15,AAAAAATT,0.0765
16,TCAGAGAA,-0.108
17,CCGGTTCG,-0.187
18,CGTTCCCC,-0.316
19,CAGGGATG,-0.105
20,AGATCCCC,-0.144
21,AGAGATTA,0.127
22,GCGTCTAC,-0.0576
23,CCATCAAA,0.039
24,CAAGTCTG,-0.143
25,ATAATTGA,0.15

row,Sequence,binding signal [E-score]
1,ATAATAAA,0.321
2,CACAATCA,-0.0271
3,CTGCTCGA,-0.33
4,GCATGAGC,-0.108
5,ACGGCAGG,-0.0894
6,ATCATCCA,0.112
7,GTCAGACA,-0.0182
8,AGAACGGG,-0.199
9,AACGGACG,-0.263
10,GGGAGCCA,-0.278
11,ATAGTGAA,0.112
12,ACTATCCA,0.0548
13,CCTTTAAG,-0.088
14,ACACGGGA,-0.268
15,GTGCTATA,0.202
16,CCCACATA,0.0313
17,ATCACGAT,0.0396
18,CAAAATGC,0.175
19,ACGCCGCA,-0.186
20,CGTAATGC,0.0364
21,CTAAAACA,0.0948
22,CCGATTTA,0.0828
23,ATAGGAAC,0.168
24,GCTAAAGC,-0.0334
25,CGGATGTC,-0.0536

row,Sequence,binding signal [E-score]
1,GGAACTCA,-0.0516
2,ATTACACC,0.0768
3,CGACGCAA,0.0483
4,AACCCGTA,0.057
5,CAACAACC,-0.059
6,GGCACTGA,-0.0696
7,CTAAAGGC,-0.103
8,TATATTAA,0.387
9,GGGTTCAA,-0.0476
10,AGGCCACT,-0.0761
11,ACGATCCC,-0.22
12,CCAATCAA,-0.223
13,ACGCAGCG,-0.237
14,ACTTACAC,0.158
15,ACTTCAGA,0.0388
16,AGAAATCT,0.319
17,GTGGTGAA,0.017
18,CTACAAGA,0.16
19,CATCCAAC,-0.0608
20,CACTAGTC,0.0907
21,CGCCCCTC,-0.232
22,CGGTAAAA,0.242
23,CCACTAAC,0.0126
24,AACCTGAT,0.0968
25,CTTAATCA,0.074

row,Sequence,binding signal [E-score]
1,CAGATTGA,-0.142
2,ACTTCTCT,0.133
3,ATGGCAAA,0.00996
4,AAGTGACT,-0.0548
5,ACCGGAAC,-0.0713
6,CGCTTATC,0.0476
7,ATCGAGTC,0.0553
8,GTGCCGTA,0.0486
9,CGTGCATA,0.213
10,CCACTTTA,0.00693
11,ACAGGTGC,-0.0636
12,ACTATTCG,0.259
13,AACTTACG,0.0653
14,CGCCACGA,-0.123
15,CGAGCTTA,-0.195
16,AGGATCGC,-0.173
17,AAACGCCT,-0.107
18,CCAGTGGC,-0.218
19,CAGCCAGG,-0.124
